According to PubChem BioAssay (NCI):
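Values below derive from 48-hour exposures of cells grown in 96-well plates, with endpoints linearly interpolated between the two concentrations bracketing the appropriate inhibition level. At the GI50, growth is halved.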 The source holds more than one record for some entries. They are shown here; other results are not. There may be further records. For some of these results: Values that stand side by side are repeats across runs, samples, wells, individuals or studies. What stands in brackets tells the records apart. A, B and so on number the origins entry by entry.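 TGI: concentration producing complete growth inhibition.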 For some of these results: Records of one sample usually come from different ranges of test concentrations, which the source does not state; some values may only mark the edge of a range.

How the values were obtained:
Experiment in all cases: NCI tumour cell line growth inhibition, 48 h
SF-539 CNS = test system: SF-539 CNS
A498 renal = test system: A498 renal
A549 NSCLC = test system: A549 NSCLC
CAKI-1 renal = test system: CAKI-1 renal
CCRF-CEM leukemia = test system: CCRF-CEM leukemia
COLO 205 colon = test system: COLO 205 colon
EKVX NSCLC = test system: EKVX NSCLC
HCT-116 colon = test system: HCT-116 colon
HOP-62 NSCLC = test system: HOP-62 NSCLC
HT29 colon = test system: HT29 colon
IGROV1 ovarian = test system: IGROV1 ovarian
K-562 leukemia = test system: K-562 leukemia
KM12 colon = test system: KM12 colon
LOX IMVI melanoma = test system: LOX IMVI melanoma
MALME-3M melanoma = test system: MALME-3M melanoma
MCF7 breast = test system: MCF7 breast
MOLT-4 leukemia = test system: MOLT-4 leukemia
NCI-H226 lung = test system: NCI-H226 lung
NCI-H23 lung = test system: NCI-H23 lung
OVCAR-3 ovarian = test system: OVCAR-3 ovarian
OVCAR-5 ovarian = test system: OVCAR-5 ovarian
OVCAR-8 ovarian = test system: OVCAR-8 ovarian
RPMI-8226 leukemia = test system: RPMI-8226 leukemia
SF-268 CNS = test system: SF-268 CNS
SF-295 CNS = test system: SF-295 CNS
SK-MEL-2 melanoma = test system: SK-MEL-2 melanoma
SK-MEL-28 melanoma = test system: SK-MEL-28 melanoma
SK-MEL-5 melanoma = test system: SK-MEL-5 melanoma
SK-OV-3 ovarian = test system: SK-OV-3 ovarian
SN12C renal = test system: SN12C renal
SNB-19 CNS = test system: SNB-19 CNS
SNB-75 CNS = test system: SNB-75 CNS
SW-620 colon = test system: SW-620 colon
U251 CNS = test system: U251 CNS
UACC-257 melanoma = test system: UACC-257 melanoma
UACC-62 melanoma = test system: UACC-62 melanoma
BT-549 breast = test system: BT-549 breast

Nc1nc(N)c2nc(CNc3ccc(C(=O)NC(CCCCNC(=O)c4ccccc4C(=O)O)C(=O)O)cc3)cnc2n1 (stereo not drawn)
TGI (SF-539 CNS): 777 nM and > 100 µM

CCCCCC(O)C1C(=O)OC(C)C(O)/C=C/C=C/C=C/C=C/C=C(\C)C(O)C(O)C(O)CC(O)CC(O)CC(O)CC(O)CC1O (stereo not drawn)
GI50 (A498 renal): > 100 µM [sample A, 1 test] and 1.58 µM [sample B, 1 test] | TGI (A498 renal): > 100 µM [sample A, 1 test] and 2.96 µM [sample B, 1 test] | GI50 (A549 NSCLC): > 100 µM [sample A, 1 test] and 1.93 µM [sample B, mean of 2 tests] | TGI (A549 NSCLC): > 100 µM [sample A, 1 test] and 3.5 µM [sample B, mean of 2 tests] | GI50 (CAKI-1 renal): > 100 µM [sample A, 1 test] and 1.2 µM [sample B, mean of 2 tests] | TGI (CAKI-1 renal): > 100 µM [sample A, 1 test] and 2.65 µM [sample B, mean of 2 tests] | GI50 (CCRF-CEM leukemia): > 100 µM [sample A, 1 test] and 2.66 µM [sample B, 1 test] | TGI (CCRF-CEM leukemia): > 100 µM [sample A, 1 test] and 8.93 µM [sample B, 1 test] | GI50 (COLO 205 colon): > 100 µM [sample A, 1 test] and 1.46 µM [sample B, mean of 2 tests] | TGI (COLO 205 colon): > 100 µM [sample A, 1 test] and 2.97 µM [sample B, mean of 2 tests] | GI50 (EKVX NSCLC): > 100 µM [sample A, 1 test] and 1.89 µM [sample B, 1 test] | TGI (EKVX NSCLC): > 100 µM [sample A, 1 test] and 3.48 µM [sample B, 1 test] | GI50 (HCT-116 colon): > 100 µM [sample A, 1 test] and 992 nM [sample B, mean of 2 tests] | TGI (HCT-116 colon): > 100 µM [sample A, 1 test] and 2.62 µM [sample B, mean of 2 tests] | GI50 (HOP-62 NSCLC): > 100 µM [sample A, 1 test] and 1.73 µM [sample B, 1 test] | TGI (HOP-62 NSCLC): > 100 µM [sample A, 1 test] and 3.31 µM [sample B, 1 test] | GI50 (HT29 colon): > 100 µM [sample A, 1 test] and 1.39 µM [sample B, mean of 2 tests] | TGI (HT29 colon): > 100 µM [sample A, 1 test] and 2.82 µM [sample B, mean of 2 tests] | GI50 (IGROV1 ovarian): > 100 µM [sample A, 1 test] and 2.11 µM [sample B, mean of 2 tests] | TGI (IGROV1 ovarian): > 100 µM [sample A, 1 test] and 4.56 µM [sample B, mean of 2 tests] | GI50 (K-562 leukemia): > 100 µM [sample A, 1 test] and 1.43 µM [sample B, 1 test] | TGI (K-562 leukemia): > 100 µM [sample A, 1 test] and 3.26 µM [sample B, 1 test] | TGI (KM12 colon): 40.7 µM [sample A, 1 test] and 3.39 µM [sample B, mean of 2 tests] | GI50 (LOX IMVI melanoma): > 100 µM [sample A, 1 test] and 1.25 µM [sample B, mean of 2 tests] | TGI (LOX IMVI melanoma): > 100 µM [sample A, 1 test] and 2.77 µM [sample B, mean of 2 tests] | GI50 (MALME-3M melanoma): > 100 µM [sample A, 1 test] and 1.56 µM [sample B, 1 test] | TGI (MALME-3M melanoma): > 100 µM [sample A, 1 test] and 3.05 µM [sample B, 1 test] | GI50 (MCF7 breast): > 100 µM [sample A, 1 test] and 1.47 µM [sample B, mean of 2 tests] | TGI (MCF7 breast): > 100 µM [sample A, 1 test] and 2.9 µM [sample B, mean of 2 tests] | GI50 (MOLT-4 leukemia): > 100 µM [sample A, 1 test] and 2.31 µM [sample B, mean of 2 tests] | TGI (MOLT-4 leukemia): > 100 µM [sample A, 1 test] and 5.29 µM [sample B, mean of 2 tests] | GI50 (NCI-H226 lung): > 100 µM [sample A, 1 test] and 1.63 µM [sample B, 1 test] | TGI (NCI-H226 lung): > 100 µM [sample A, 1 test] and 3.18 µM [sample B, 1 test] | GI50 (NCI-H23 lung): > 100 µM [sample A, 1 test] and 1.74 µM [sample B, mean of 2 tests] | TGI (NCI-H23 lung): > 100 µM [sample A, 1 test] and 3.26 µM [sample B, mean of 2 tests] | GI50 (OVCAR-3 ovarian): > 100 µM [sample A, 1 test] and 1.73 µM [sample B, mean of 2 tests] | TGI (OVCAR-3 ovarian): > 100 µM [sample A, 1 test] and 3.3 µM [sample B, mean of 2 tests] | GI50 (OVCAR-5 ovarian): > 100 µM [sample A, 1 test] and 2.43 µM [sample B, mean of 2 tests] | TGI (OVCAR-5 ovarian): > 100 µM [sample A, 1 test] and 5.74 µM [sample B, mean of 2 tests] | GI50 (OVCAR-8 ovarian): > 100 µM [sample A, 1 test] and 1.52 µM [sample B, mean of 2 tests] | TGI (OVCAR-8 ovarian): > 100 µM [sample A, 1 test] and 3.24 µM [sample B, mean of 2 tests] | GI50 (RPMI-8226 leukemia): > 100 µM [sample A, 1 test] and 2.11 µM [sample B, mean of 2 tests] | TGI (RPMI-8226 leukemia): > 100 µM [sample A, 1 test] and 6.83 µM [sample B, mean of 2 tests] | GI50 (SF-268 CNS): > 100 µM [sample A, 1 test] and 1.64 µM [sample B, mean of 2 tests] | TGI (SF-268 CNS): > 100 µM [sample A, 1 test] and 3.65 µM [sample B, mean of 2 tests] | GI50 (SF-295 CNS): > 100 µM [sample A, 1 test] and 1.5 µM [sample B, mean of 2 tests] | TGI (SF-295 CNS): > 100 µM [sample A, 1 test] and 2.86 µM [sample B, mean of 2 tests] | GI50 (SF-539 CNS): > 100 µM [sample A, 1 test] and 1.74 µM [sample B, mean of 2 tests] | TGI (SF-539 CNS): > 100 µM [sample A, 1 test] and 3.27 µM [sample B, mean of 2 tests] | GI50 (SK-MEL-2 melanoma): > 100 µM [sample A, 1 test] and 1.61 µM [sample B, mean of 2 tests] | TGI (SK-MEL-2 melanoma): > 100 µM [sample A, 1 test] and 3.03 µM [sample B, mean of 2 tests] | GI50 (SK-MEL-28 melanoma): > 100 µM [sample A, 1 test] and 1.75 µM [sample B, mean of 2 tests] | TGI (SK-MEL-28 melanoma): > 100 µM [sample A, 1 test] and 3.27 µM [sample B, mean of 2 tests] | GI50 (SK-MEL-5 melanoma): > 100 µM [sample A, 1 test] and 2.11 µM [sample B, mean of 2 tests] | TGI (SK-MEL-5 melanoma): > 100 µM [sample A, 1 test] and 4.17 µM [sample B, mean of 2 tests] | GI50 (SK-OV-3 ovarian): > 100 µM [sample A, 1 test] and 1.95 µM [sample B, mean of 2 tests] | TGI (SK-OV-3 ovarian): > 100 µM [sample A, 1 test] and 3.67 µM [sample B, mean of 2 tests] | GI50 (SN12C renal): > 100 µM [sample A, 1 test] and 1.71 µM [sample B, mean of 2 tests] | TGI (SN12C renal): > 100 µM [sample A, 1 test] and 3.24 µM [sample B, mean of 2 tests] | GI50 (SNB-19 CNS): > 100 µM [sample A, 1 test] and 1.59 µM [sample B, mean of 2 tests] | TGI (SNB-19 CNS): > 100 µM [sample A, 1 test] and 3.09 µM [sample B, mean of 2 tests] | GI50 (SNB-75 CNS): > 100 µM [sample A, 1 test] and 1.8 µM [sample B, mean of 2 tests] | TGI (SNB-75 CNS): > 100 µM [sample A, 1 test] and 3.82 µM [sample B, mean of 2 tests] | GI50 (SW-620 colon): > 100 µM [sample A, 1 test] and 1.52 µM [sample B, mean of 2 tests] | TGI (SW-620 colon): > 100 µM [sample A, 1 test] and 3.45 µM [sample B, mean of 2 tests] | GI50 (U251 CNS): > 100 µM [sample A, 1 test] and 1.86 µM [sample B, mean of 2 tests] | TGI (U251 CNS): > 100 µM [sample A, 1 test] and 3.34 µM [sample B, mean of 2 tests] | GI50 (UACC-257 melanoma): > 100 µM [sample A, 1 test] and 1.73 µM [sample B, mean of 2 tests] | TGI (UACC-257 melanoma): > 100 µM [sample A, 1 test] and 3.33 µM [sample B, mean of 2 tests] | GI50 (UACC-62 melanoma): > 100 µM [sample A, 1 test] and 1.57 µM [sample B, mean of 2 tests] | TGI (UACC-62 melanoma): > 100 µM [sample A, 1 test] and 3.02 µM [sample B, mean of 2 tests]

CC(=O)Oc1ccc(C(c2ccc(OC(C)=O)cc2)c2ccccn2)cc1
TGI (BT-549 breast): 349 nM [sample A] and 6.58 µM [sample B]
